Paper PMC12040169 (PLOS Biology, 2025)
Some of the results follow.

system: T1, C. trachomatis L2/434/Bu expressing GFP (CTL2-GFP); parameters: species or system HeLa; C. trachomatis total inclusion area by high-content imaging, normalised to DMSO; details: total inclusion area; 28.5 h, 10 µM; inhibitor
T1 construct: L2/434/Bu GFP intracellular growth in HeLa cells
In short: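 Post-fluorescence-read fixation, DNA staining with Hoechst and high-content imaging; GFP inclusion area and number per well, and nuclei counts, used as proxies for bacterial growth and host viability.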

Point of comparison: `Cc1c(C(=O)N(C)C2CCNC2)nnn1-c1ccc2ncccc2c1` (stereo not drawn) [CBK304698], “% of control remaining” value 47.6688. Against it:
- O=C(O)c1nc2n(n1)C(C(F)(F)F)CC(c1cccs1)N2 (stereo not drawn) [CBK026415] — higher, 73.2318
- Cc1cc(C)c2c(n1)sc1c(N3CCC(C(=O)O)CC3)ncnc12 [CBK300512] — higher, 95.933
- O=C(NCCc1cccs1)Nc1ccc(F)c(F)c1 [CBK043951] — higher, 86.3864
- CCc1nc2sc(C(N)=O)c(N)c2c2c1CCCC2 [CBK131872] — higher, 118.085
- Nc1nnc(SCCC(=O)N2CCN(c3ccc(F)cc3)CC2)s1 [CBK304597] — higher, 55.9154
- CC(C)(C)c1ccc(COn2c(=O)c(-c3ccccc3Cl)[n+]([O-])c3ccccc32)cc1 [CBK267494] — higher, 101.163
- COC(=O)c1sc2cc(NC(=S)NCc3ccc(S(N)(=O)=O)cc3)ccc2c1Cl [CBK267094] — higher, 111.34
- O=C(c1ccc(OC(F)F)cc1)N1CCCc2cc(S(=O)(=O)N3CCCCC3)ccc21 [CBK295621] — higher, 100.164
- O=S(=O)(NCc1ccc(C(F)(F)F)c(F)c1)c1cccc2nsnc12 [CBK062113] — higher, 104.019
- Cc1ncncc1C(=O)N1CCCCC1CCc1ccccc1 (stereo not drawn) [CBK282264] — higher, 99.0117
- O=C(Cn1c(C2CCNCC2)cc2cccnc21)NC1CCCC1 [CBK285002] — higher, 96.8877
- CC(=O)Nc1ccc(-c2nc3cnccc3o2)cc1 [CBK287975] — higher, 91.7131
- CSc1sc(C(=O)CC#N)c2c1C=CCC2 [CBK006004] — higher, 80.7933
- CC1Oc2ccccc2OC1C(=O)Nc1nnc(Cc2ccccc2)s1 (stereo not drawn) [CBK295634] — higher, 77.3503
- COc1ccc(OCCN2CCC3(CC2)CN(S(C)(=O)=O)c2ccccc23)cc1 [CBK126681] — lower, 0.02868
- CCOC(=O)CC(=O)CSc1nc(C)cc(-c2cccs2)c1C#N [CBK267446] — higher, 112.802
- CCCCNS(=O)(=O)c1ccc(OCC(=O)O)cc1 [CBK268550] — higher, 88.0928
- OCCc1ccc(Nc2cc(-c3cccnc3)ncn2)cc1 [CBK090768] — higher, 94.2509
- N#C/C(=C\c1cn(-c2ccccc2)nc1-c1cccc(S(=O)(=O)N2CCOCC2)c1)c1nc2ccccc2c(=O)[nH]1 [CBK266357] — higher, 127.135
- Cc1nn(CC(=O)N2CCCCC2)c(=O)c2cc3ccsc3n12 [CBK284078] — higher, 109.126
- CN(C)CCN(C)c1cncc(-c2cccc3ccccc23)n1 [CBK065709] — higher, 137.201
- COc1ccc(C2CCCN2S(=O)(=O)c2ccccc2[N+](=O)[O-])cc1OC (stereo not drawn) [CBK295309] — higher, 85.0576
- O=C(Cc1ccccc1F)N1CCCC(c2cnccn2)C1 (stereo not drawn) [CBK284601] — higher, 114.509
- CCN1CCc2nc(NC(=O)c3ccc(Cl)cc3)sc2C1 [CBK287644] — higher, 89.8325
- CC(=O)N1CCN(c2nnc(-c3ccccc3)o2)CC1 [CBK170332] — higher, 81.4536
- CCCc1cc(=O)n2c(n1)SCOC2 [CBK010967] — lower, 44.539
- COc1ccc(C(=O)O)cc1NC(=S)NC(=O)c1ccc(-c2cc(Cl)ccc2Cl)o1 [CBK265074] — higher, 123.957
- CCc1cc(CNC(=O)C2CC3C=CC2C32CC2)on1 (stereo not drawn) [CBK282071] — higher, 85.7335
- COc1ccc(C2=C(CC(=O)O)C(=O)CC2)cc1 [CBK264812] — higher, 106.092
- Cc1cc(COC(=O)N2CCSCC2)cc(C)n1 [CBK200153] — higher, 95.0696
- CC(CCCC(C)(C)O)Nc1cncc(-c2ccccc2CO)n1 (stereo not drawn) [CBK065529] — higher, 102.793
- O=C1NC2(CCCCC2)C(=O)N1Cc1cnn(-c2ccccc2)n1 [CBK305570] — higher, 90.4462
- Clc1cccc(-c2cc(NCc3cccs3)n3nccc3n2)c1 [CBK037238] — higher, 103.59
- CN(Cc1nc(-c2ccccc2)no1)C(=O)COCC1CCCCO1 (stereo not drawn) [CBK307643] — higher, 62.3724
- Cn1cnnc1CNC(=O)N1CCN(Cc2cccs2)CC1 [CBK305045] — higher, 85.7021
- CC(=O)Nc1cccc(C(C)NC(=O)N(C)C2CCc3ccccc32)c1 (stereo not drawn) [CBK306251] — higher, 80.6705
- COc1cccc(NC(=O)N2CCC(n3c(=O)n(C(=O)Nc4cccc(OC)c4)c4ccccc43)CC2)c1 [CBK149177] — higher, 77.2903
- Cc1cccc2cc(/C=C(\C#N)c3nc(-c4cc5ccccc5oc4=O)cs3)c(Cl)nc12 [CBK261642] — higher, 94.8993
- O=C(O)c1ccc(NC(=S)NC(NC(=O)c2ccco2)C(Cl)(Cl)Cl)cc1 (stereo not drawn) [CBK261025] — higher, 88.4148
- COC(=O)c1sc(NC(=O)C2CC2)c(C#N)c1C [CBK026049] — higher, 73.9464
- O=C(NCn1nnc2ccccc21)c1ccccc1 [CBK056950] — higher, 62.1258
- COc1ccc(NC(=O)c2ccc(CN3CCOCC3)cc2)c(OC)c1 [CBK263790] — higher, 103.605
- CSc1nnc(C2CCCN2C(=O)[C@@H]2C[C@@H]3C=C[C@H]2C3)n1C (stereo partly drawn) [CBK282012] — higher, 111.39
- COc1ccc2c(c1)C1(CC(=O)N(CC3CCCCC3)C1=O)C(=O)N2C (stereo not drawn) [CBK075201] — higher, 101.526
- CC1(C)C(N(O)C(=O)Nc2cccc3ccccc23)N(c2cccc3ccccc23)C(=O)N1CC(=O)NN (stereo not drawn) [CBK261004] — higher, 96.6898
- CC(C)NC(=O)[C@H]1O[C@H](CCN2CCOCC2)CC[C@@H]1O [CBK288720] — higher, 124.593
- Cc1noc(C)c1NC(=O)c1cc2ccccc2n1C [CBK200311] — higher, 140.925
- COC(=O)[C@H]1CN(C(=O)c2cccs2)C[C@@H]1c1ccc(F)cc1 [CBK283732] — higher, 82.1103
- Cc1cc(CN(C)c2nccc(N3CCN[C@H]4CS(=O)(=O)C[C@H]43)n2)no1 [CBK306580] — higher, 47.9969
- CCOc1cc(C(=S)N2CCCCC2)ccc1OC(=O)c1ccccc1Cl [CBK019660] — higher, 94.6757
- CCOC(=O)N/N=C(/C)C(C)(C)C [CBK016460] — higher, 106.585
- Cc1cccc(OCCCn2cncc2-c2cn(C)nc2C)c1 [CBK281766] — higher, 115.045
- COCCNc1nccnc1-c1cccc(C(F)(F)F)c1 [CBK037330] — higher, 54.9433
- COc1ccc(CN2CCN(c3nccnc3OC)CC2)cc1 [CBK084216] — higher, 91.9344
- CC(=O)N[C@H](Cc1c[nH]c2ccccc12)C(=O)N1CC[C@H]2NC(=O)[C@H](Cc3ccccc3)NC(=O)C3(C/C=C/C[C@H]2C1)CCOCC3 [CBK292205] — higher, 93.6471
- Cc1ccc(Cl)cc1NC(=O)C1CC(=O)N(Cc2ccccn2)C1 (stereo not drawn) [CBK305561] — higher, 92.1915
- c1csc(CNc2c(-c3cccs3)nc3cnccn23)c1 [CBK283685] — higher, 92.6517
- Nc1cc(C(=O)c2ccc(Br)c(N)c2)ccc1Cl [CBK269708] — higher, 99.8262
- COc1ccc(C(NC(=O)NNC(=O)Cc2ccc(Cl)cc2)c2ccccc2C)cn1 (stereo not drawn) [CBK083660] — higher, 76.2386
- CC(=O)Nc1ccc(S(=O)(=O)N2CCN(C(=O)COc3ccc(C)cc3)CC2)cc1 [CBK264268] — higher, 95.2661
- NCCCNC(=O)c1ccc(-c2cccc(C(F)(F)F)c2)o1 [CBK107454] — higher, 96.762
- O=[N+]([O-])c1ccc(CN2CCC(Oc3cncc(OCCN4CCOCC4)n3)C2)cc1 (stereo not drawn) [CBK084485] — higher, 98.7814
- O=S(=O)(O)CCCSc1nc2ccccc2s1 [CBK260900N] — higher, 80.7513
- CCCCc1c(C)nc2ccc(Br)cc2c1SCCC(=O)O [CBK126915] — higher, 104.577
- CCc1nnc(N/N=C/c2cccs2)n1N [CBK026233C] — higher, 56.4356
- Cn1nc(C2CCCN(C(=O)C3CC3)C2)c2cccnc21 (stereo not drawn) [CBK282654] — higher, 109.667
- N=C1NC(=O)C(CC(=O)Nc2cccc([N+](=O)[O-])c2)S1 (stereo not drawn) [CBK263944] — higher, 98.4593
- Cc1nn(C)cc1S(=O)(=O)N1CCCC(c2cccc(Cc3ccccc3Cl)n2)C1 (stereo not drawn) [CBK286127] — higher, 112.171
- Cc1ccc(-c2ccc(CCC(=O)O)n2NC(=O)c2ccc([N+](=O)[O-])cc2)cc1 [CBK264776] — higher, 116.422
- O=C(O)COCc1nn(-c2ccc(Br)cc2)c2c1CCCC2 [CBK016404] — lower, 23.9803
- O=C(Nc1cccc(C(F)(F)F)c1)N[C@H]1CO[C@H]2[C@@H]1OC[C@H]2O [CBK289476] — higher, 93.038
- COCCN(Cc1cnn(C)c1)C(=O)Cc1ccc(Cl)cc1 [CBK307407] — higher, 70.2694
- CC(C)OC(=O)c1cc2c(ccn2-c2ccc(F)cc2)n1CCC#N [CBK123921] — higher, 82.9873
- Cc1n[nH]c(NCc2cccc(Cl)c2Cl)n1 [CBK288037] — higher, 91.8742
- COC(C)(C)C(=O)N1CCCC(c2ccc(Cc3cccc(C(F)(F)F)c3)cn2)C1 (stereo not drawn) [CBK286124] — higher, 89.8811
- COc1ccc2[nH]cc(CCNC(=O)c3ccc(NC(C)=O)cc3)c2c1 [CBK269296] — higher, 92.9101
- Cc1ccn(-c2ccc(N3CCC4(CC3)OCCO4)nn2)n1 [CBK305263] — higher, 55.1936
- CN(C)c1nc(N)nc(COc2ccccc2F)n1 [CBK288236] — higher, 89.147
- Cc1ccccc1Sc1ccc(C(F)(F)F)cn1 [CBK115237] — higher, 93.3839
- O=S(=O)(Cc1csc(N2CCOCC2)n1)c1ccccn1 [CBK011137] — higher, 76.7759
